Experimental findings from publication PMC12136788 are described below.

Some of the results follow.

T1: UNK ZnF1-3 (human, UniProt Q9C0B0 31-174)
T1 sequence: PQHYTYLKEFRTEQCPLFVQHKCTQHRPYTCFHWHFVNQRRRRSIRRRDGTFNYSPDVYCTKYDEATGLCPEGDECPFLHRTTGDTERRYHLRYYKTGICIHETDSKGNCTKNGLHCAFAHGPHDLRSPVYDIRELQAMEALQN

B1: chr11:215046:215047:+_ENSG00000177963_ENST00000526104|hu_hu|FALSE|FALSE (ssRNA)
RNA: GGGAGUUCUACAGUCCGACGAUCUUUAUUUCAAGAUGAUGUUUCUGUGGCUAUGUGUGGUAUGUGGUAUAAAUCUCAAUCUAUGGUCACACGAGGGGCAUUUUCCUUGUUGUAAGUGUAGUCUAAACCAGUAGGAAGGAGGUUCAACAGAGGAUUGAGCAUCA
B2: chr3:170078963:170078964:+_ENSG00000136603_ENST00000458537|hu_hu|FALSE|FALSE (ssRNA)
RNA: GGGAGUUCUACAGUCCGACGAUCGGGUGCAAACAUUCCACAACACUCCAGACAUUGAAUACACGGAGCAUCAGGCUGAACAUAAAACUGGGGUGCAAAUAAACCCUGACAUUUGCCUAGGCAUUCAUGCUCCACUUCAAAGGCCAACAGAGGAUUGAGCAUCA
B3: chr7:141356670:141356671:-_ENSG00000257093_ENST00000536163|hu_hu|FALSE|FALSE (ssRNA)
RNA: GGGAGUUCUACAGUCCGACGAUCUAUAUACAGAUAUGAUAUUCAUAGAUGUUAUUUGUACCACAGAACAAAAUCAAUUCAAGAAACAUUUACUUUUAGCUUCAGGAUUAACCCCAGCUUUCUUUAGGCCUUAAAAUUACCACCCAACAGAGGAUUGAGCAUCA
B4: chr9:103913939:103913940:+_ENSMUSG00000032558_ENSMUST00000035167|mus_hu|FALSE|FALSE (ssRNA)
RNA: GGGAGUUCUACAGUCCGACGAUCAAAAUAAACAGCAUGGAAAAAAUAUCCCAUUGUCUCGCACAUUCUCUUAAGUUUAGGUGAAUAGUCCUUAAGGAAAAGAUCCAUCUCAGGCUGGGUUUCAUCUGUAUAAAUGAGGUAACACAACAGAGGAUUGAGCAUCA
B5: chr14:89307221:89307222:+_ENSG00000165533_ENST00000346301|hu_mus|hu_hu_hu_mus_False|18_28 (ssRNA)
RNA: GGGAGUUCUACAGUCCGACGAUCUCCUGUUUGGUUAGUGCCAGGGAGCUUCAAAGAUGUGCCAGGGCGUGGGACCUGAGCAAUAGCAUUUUCAUCCAGGAUCAUUUCUGCAAUUCCUUCCUGAUCUACAUCAAUUUCAUCUAUCAACAGAGGAUUGAGCAUCA
B6: 38108049_38108169_4134_3pUTR_ENSMUSG00000063455_ENSMUST00000169256|mouse|control|control (ssRNA)
RNA: GGGAGUUCUACAGUCCGACGAUCCCCUCUGAGCCGUAUGUUCUUGGAAGGGAGCUUUGACUUGGGGCUCGGCACAUCUCCGUUUUCUGAGGGUGUGGUGUGGUCCUUCACAGGGCCUGGCAGUGGCGCUGGCUCAUGAAUAAUCAACAGAGGAUUGAGCAUCA
B7: chr13:120183613:120183614:-_ENSMUSG00000025453_ENSMUST00000099149|mus_hu|motif|central (ssRNA)
RNA: GGGAGUUCUACAGUCCGACGAUCGUAAAUAAAACUAAUCAGCGUUCCUGAUGUCUUUAAAAGGUCAGCUUCAUGAACACCGGAUGUUGGAUUAACCAUAGGGGCUCGCACUUUGACCACCAAAUCAGAAGCCAGCACUUCCUUCAACAGAGGAUUGAGCAUCA
B8: chr4:175180916:175180917:-_ENSG00000164117_ENST00000503293|hu_hu|FALSE|FALSE (ssRNA)
RNA: GGGAGUUCUACAGUCCGACGAUCAUUAAAGGUGAGGCUGCCUUCAUCCAGCUGCAUAUACAAUUUUCUAAAAGAAAAUCCUAAAGGUGGGUUCUUAUUGUAUAUGGAACAGUGACCCCAAGUGGAUUUGCACAACCCUUGCCACAACAGAGGAUUGAGCAUCA
B9: chr6:40197388:40197389:+_ENSMUSG00000057716_ENSMUST00000061740|mus_mus|mus_mus_mus_hu_False|68_88 (ssRNA)
RNA: GGGAGUUCUACAGUCCGACGAUCGAGACACUGGGGUGGAUUUAUUCUCAGUUUGGGUGGGUGCUAGUAAGAUAGAUUGUUAUUUUGGGAUUCAUGGCCUUGAAUAUCAAGAGGGAAAGGAAGAGGAUGGAAAGAGUCAAGAGUCAACAGAGGAUUGAGCAUCA
B10: chr1:217782781:217782782:-_ENSG00000092978_ENST00000366934|hu_hu|FALSE|FALSE (ssRNA)
RNA: GGGAGUUCUACAGUCCGACGAUCUUUUGAUGUGUUUCAGGUAUCAGACAAAGCAGAUAAUUUAAAAGGUAAAUGAUUCUACUAGUGCAGACUAGUUAUCACUGUGGCUAAUUUAAAACGAGGAUGAUUUUUGCAGUACAAUGACAACAGAGGAUUGAGCAUCA
B11: chr8:72542918:72542919:-_ENSMUSG00000031858_ENSMUST00000050561|mus_mus|motif|central (ssRNA)
RNA: GGGAGUUCUACAGUCCGACGAUCAGCUAUCAAGCCAAGAGGAGCUGAGCUGGUCCCAUAACUGUCCUCCAUGGGAAAGCGGAAUAGCUGCCAGGAAGGAACCCUCUCAUUCAGGUCCAAUGGGACUUCUGCCUGAUGCUUAGGCAACAGAGGAUUGAGCAUCA
B12: 109252302_109260844_210_CDS_ENSG00000104408_ENST00000220849|human|control|control (ssRNA)
RNA: GGGAGUUCUACAGUCCGACGAUCAGCAUGAGGAAUAUCAUCAGAAUAAAGGUUUUUGUAUACAUCCAUAGCAAAGUCUACCAUGUUGGUAUCACUAAGAAGGUCCAAUUUACCUUGUAAUAAUUCCUUUUCAUUAUAUAUCUCCAACAGAGGAUUGAGCAUCA
B13: chr11:134021440:134021441:+_ENSG00000166086_ENST00000529443|hu_hu|FALSE|FALSE (ssRNA)
RNA: GGGAGUUCUACAGUCCGACGAUCAUUCAUAUCUUAAAAUACACGAGUAUUCCUUUUCCGUCUAGUCUCAGUUAUAGGCAGCUACUUCCCAGACUCUACUUUCACUUCUCUCUACUUUUUCAGACCUGGUUCCCAUGGCACUAGCAACAGAGGAUUGAGCAUCA
B14: chr2:152838176:152838177:-_ENSMUSG00000027472_ENSMUST00000028972|mus_mus|FALSE|FALSE (ssRNA)
RNA: GGGAGUUCUACAGUCCGACGAUCCUGGAUCAUUUCCUUCGUCUUAGGGUGAGGCAUUUUGAUGAACAUGUUCCCAAAGCAAACCAUCACAUCUUCAGAGACACUCAGGUCCUUCUGUAGGGCCCUCAGGCCCUCUCGGUUCUGCAACAGAGGAUUGAGCAUCA

The target in this experiment is T1, UNK ZnF1-3. The experiment in a line: nsRBNS (natural sequence RNA bind-n-seq); RBNS binding buffer (assumed for nsRBNS): 25 mM Tris pH 7.5, 150 mM KCl, 3 mM MgCl2, 0.01% Triton X-100, 500 ug/ml BSA, 20 U/ml SUPERase-In, 4 C; UNK is unkempt and MSI1 is Musashi-1; names of the RNAs are library labels; protein concentration not given here; high values mean tight binding.
In turn, B1 had a binding signal of 1.21 enrichment R.

B2 registered a binding signal of 1.32 enrichment R.

In the case of B3, the binding signal amounted to 1.05 enrichment R.

On to B4, for which the binding signal is 0.996 enrichment R.

The molecule B5 showed a binding signal of 0.866 enrichment R.

On to B6, for which the binding signal amounted to 1 enrichment R.

Molecule B7 yielded a binding signal of 0.619 enrichment R.

B8 had a binding signal of 1.46 enrichment R.

B9: the binding signal stood at 2.73 enrichment R.

In turn, B10 showed a binding signal of 0.987 enrichment R.

For B11, the binding signal was determined as 1.26 enrichment R.

For B12, the binding signal stood at 1.04 enrichment R.

In turn, B13 yielded a binding signal of 0.572 enrichment R.

In the case of B14, the binding signal was 0.888 enrichment R.
